Test results taken from US12240853B2, “Compounds useful in HIV therapy” (GlaxoSmithKline Intellectual Property (No.2) Limited, priority 2019, dated 2025).

Test system: HIV pseudotyped virus, WT
Assay: microbe, parasite or virus in culture
Settings: for IC50: Human immunodeficiency virus 1, U373 MG; for Fold Change vs EFdA: fold change of the persistence index relative to EFdA; for Persistence Index: ratio of the IC50 determined at 48 and 0 h
Procedure: The PSV assay was adapted to determine the antiviral persistence of each compound. This assay evaluates the ability of each compound to remain active in cells for two days i.e prevent PSV infection of cells in a dose dependent manner, 48 h after the removal of compound. Duplicate plates of U373 cells were treated with a serial dilution of small molecule inhibitors for 6 h at 37° C. Compounds were removed from cells by washing twice cells with 1×PBS. For baseline group (i.e immediately after washing or 0 h), cells were infected with prepared PSVs and cultured for three days. For experimental group (48 h), the culture medium is added to the washed cells and the plate incubated at 37° C. for 48 h. After two days of culture, the prepared PSVs were added to the cells and the mixture cultured for three days. […] The persistence index, which is the ratio of the IC50 determined at 48 and 0 h is presented in Table 2 as well as the fold change of the persistence index relative to EFdA [(2R,3S,5R)-5-(6-amino-2-fluoro-9H-purin-9-yl)-2-ethynyl-2-(hydroxymethyl)tetrahydrofuran-3-ol].
Statistical analysis and graphing of the data were performed in JMP 13.2.1 (SAS Institute, Cary, NC). A four-parameter logistic Hill Model was fit to % Inhibition and log10 concentration values, separately for each compound, time point and run. A pilot experiment included 2 independent experimental runs and a later follow-up experiment included 4 runs. Quality control criteria based on R^2 and 95% confidence interval ranges of all four parameter estimates were used to exclude curves with poor fits. Using inverse prediction, log10 concentrations were obtained that correspond to 50% Inhibition (log10IC50*) and the log10 persistence index was calculated for each compound and run using the following formula: log10 persistence Index=log10IC50*48 hrs−log10IC50*0hrs. Next, a linear mixed effects model was fit on log10 persistence index values with a fixed effect for compound and a random effect for experimental run, followed by post hoc contrasts to compare the log10 persistence index of the positive control EFdA to the log10 persistence index of other test compounds. The estimated LSMeans and differences were then back-transformed via 10^Estimate to the original scale and reported as persistence index and fold change respectively. Raw p-values were reported. […] The curves in FIG. 1 were obtained from a single curve fit across replicate runs instead of separate fits for each run as described above.

SMILES | IC50 (read-out: WT IC50 at t = 0 h) [nM] | IC50 (read-out: WT IC50 at t = 48 h) [nM] | Fold Change vs EFdA | Persistence Index
C#C[C@]1(CO)O[C@@H](n2cnc3c(N)nc(F)nc32)C[C@@H]1O [EFdA, (2R,3S,5R)-5-(6-amino-2-fluoro-9H-purin-9-yl)-2-ethynyl-2-(hydroxymethyl)tetrahydrofuran-3-ol, reference compound] | 7.4 | 316 | 1.00 | 42.87
C#C[C@]1(COC(=O)CCCCCCCCC)O[C@@H](n2cnc3c(N)nc(F)nc32)C[C@@H]1OC(=O)OCC [Example 15, ((2R,3S,5R)-5-(6-amino-2-fluoro-9H-purin-9-yl)-3-((ethoxycarbonyl)oxy)-2-ethynyltetrahydrofuran-2-yl)methyl Decanoate] | 34.3 | 120 | 12.23 | 3.51
C#C[C@]1(COC(=O)CCCCCCCCC)O[C@@H](n2cnc3c(N)nc(F)nc32)C[C@@H]1OC(=O)CCCCCCCCC [Example 18, (2R,3S,5R)-5-(6-amino-2-fluoro-9H-purin-9-yl)-2-((decanoyloxy)methyl)-2-ethynyltetrahydrofuran-3-yl Decanoate] | 16.1 | 44.2 | 15.59 | 2.75
C#C[C@]1(COC(=O)CCCCCC)O[C@@H](n2cnc3c(N)nc(F)nc32)C[C@@H]1OC(=O)CCCCCC [Example 16, (2R,3S,5R)-5-(6-amino-2-fluoro-9H-purin-9-yl)-2-ethynyl-2-((heptanoyloxy)methyl)tetrahydrofuran-3-yl Heptanoate] | 5.5 | 35.9 | 6.61 | 6.49

Like-named read-outs stand apart in the source and are kept apart here.
